IC50 is the fitted dose that halves viability relative to control wells, and lower means more sensitive; where the fit passes the top or lowest dose, that dose stands as a limit. AUC, from the same fit, is the share of area under the viability curve across the 256-fold dose range: 1 means no effect, lower means more sensitive. For some assays here: The top dose, if marked as inferred, was calculated from the reported fits. For some assays here: An entry number marks a drug with two screens in the source, which often give different values. Bounds are passed on as bounds.

Nine cell lines from the supplement of paper PMC4967469 can be followed below.

Assay in all cases: Viability of human cancer cell lines after 72 h of drug (GDSC screen)
Compound in one assay: NCC(=O)Nc1ccc(-n2nc(C(F)(F)F)cc2-c2ccc3c(ccc4ccccc43)c2)cc1 [OSU-03012]
The settings on record: top dose 16 µM; top dose inferred. As for the experimental part:
(§1)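 Human cancer cell lines in 384-well plates, medium with 10% serum, drug for 72 h over a 256-fold dose range (nine 2-fold or five 4-fold steps up to the top dose). Adherent lines were fixed and stained with the nucleic acid dye Syto60, suspension lines read with resazurin; signal relative to control wells, capped at 0 and 100%. One two-parameter sigmoid per drug and line, fitted in a mixed model over all curves with the slope shared within a line.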

Compound in the next assay: C#Cc1cccc(Nc2ncnc3cc(OC)c(OCCCCCCC(=O)NO)cc23)c1 [CUDC-101]
The settings on record: top dose 5.12 µM; top dose inferred. As for the experimental part:
as §1

Compound in a further assay: OC[C@H](Cc1ccccc1)Nc1nc(Oc2ccc3c(c2)CCC3)nc2c1ncn2Cc1ccc(-c2ccccc2)cc1 [QS11]
The settings on record: top dose 10.24 µM. Here is the method: as §1

Compound in a further assay: CC(C)(C)c1cc(NC(=O)Nc2ccc(-c3cn4c(n3)sc3cc(OCCN5CCOCC5)ccc34)cc2)no1 [AC220]
The settings on record: top dose 1.024 µM; top dose inferred. As for the experimental part:
as §1

Compound in the next assay: Fc1cc(-c2ccnc(Nc3ccc(-n4cnc(N5CCOCC5)n4)cc3)n2)cc(N2CCOCC2)c1 [JNK-9L]
To be noted: top dose 5.12 µM; top dose inferred. Here is the method:
as §1

Compound in the next assay: COc1cc(F)c(F)c(Nc2ccc(I)cc2F)c1NS(=O)(=O)C1(C[C@H](O)CO)CC1 [RDEA119]
To be noted: top dose 5 µM, top dose inferred. As for the experimental part:
as §1

The IC50 is the concentration needed to halve the response being measured. HCC1937 (breast, adherent): the AUC amounted to 0.721 in the assay with OSU-03012; 0.626 in the assay with CUDC-101; 0.985 in the assay with QS11; 0.969 with AC220; 0.686 with JNK-9L; 0.908 with RDEA119 (screen: GDSC drug entry 1014). Also, the AUC in the assay with RDEA119 (screen: GDSC drug entry 1526) turned out to be 0.926. Moreover, the IC50 with OSU-03012 is 4720 nM; with CUDC-101, 753 nM; with QS11, > 10200 nM; with AC220 it was > 1020 nM; in the assay with JNK-9L, 1150 nM; in the assay with RDEA119 (screen: GDSC drug entry 1014) it was > 5000 nM. For the same cell line, the IC50 in the assay with RDEA119 (screen: GDSC drug entry 1526) was > 5000 nM.

As to HCC-44 (lung adenocarcinoma, adherent), the AUC with OSU-03012 stood at 0.558; with CUDC-101, 0.585; with QS11, 0.753; with AC220 it was 0.984; with JNK-9L, 0.48; with RDEA119 (screen: GDSC drug entry 1014) it was 0.472. The AUC with RDEA119 (screen: GDSC drug entry 1526) amounted to 0.721. In addition, the IC50 with OSU-03012 was 1440 nM; with CUDC-101 it was 545 nM; in the assay with QS11, 3360 nM; in the assay with AC220, > 1020 nM; in the assay with JNK-9L, 283 nM; with RDEA119 (screen: GDSC drug entry 1014) it was 263 nM. In addition, the IC50 with RDEA119 (screen: GDSC drug entry 1526) was 1300 nM.

For HCC-78 (lung adenocarcinoma, adherent), the AUC came to 0.888 in the assay with OSU-03012; 0.423 in the assay with CUDC-101; 0.973 with QS11; 0.976 with AC220; 0.719 in the assay with JNK-9L; 0.835 in the assay with RDEA119 (screen: GDSC drug entry 1014). The AUC with RDEA119 (screen: GDSC drug entry 1526) is 0.875. The IC50 with OSU-03012 is > 16000 nM; with CUDC-101 it was 190 nM; in the assay with QS11, > 10200 nM; in the assay with AC220, > 1020 nM; in the assay with JNK-9L it was 1500 nM; with RDEA119 (screen: GDSC drug entry 1014), 4130 nM. In addition, the IC50 in the assay with RDEA119 (screen: GDSC drug entry 1526) is > 5000 nM.

For the cell line HCT-116 (large intestine, adherent), the AUC with OSU-03012 is 0.797; in the assay with CUDC-101 it was 0.405; with QS11 it was 0.942; with AC220, 0.986; in the assay with JNK-9L it was 0.412; with RDEA119 (screen: GDSC drug entry 1014) it was 0.606. Moreover, the AUC in the assay with RDEA119 (screen: GDSC drug entry 1526) is 0.531. The IC50 in the assay with OSU-03012 is 7100 nM; in the assay with CUDC-101, 178 nM; with QS11, > 10200 nM; in the assay with AC220 it was > 1020 nM; with JNK-9L, 186 nM; in the assay with RDEA119 (screen: GDSC drug entry 1014) it was 601 nM. Moreover, the IC50 with RDEA119 (screen: GDSC drug entry 1526) stood at 379 nM.

Consider HSC-2 (head and neck, adherent), for which the AUC in the assay with OSU-03012 was 0.602; in the assay with CUDC-101, 0.61; with QS11, 0.876; with AC220, 0.989; in the assay with JNK-9L, 0.452; in the assay with RDEA119 (screen: GDSC drug entry 1014), 0.833. The AUC with RDEA119 (screen: GDSC drug entry 1526) came to 0.89. In addition, the IC50 in the assay with OSU-03012 is 1860 nM; with CUDC-101, 625 nM; with QS11 it was 8850 nM; with AC220, > 1020 nM; with JNK-9L, 240 nM; with RDEA119 (screen: GDSC drug entry 1014) it was 2890 nM. Further, the IC50 with RDEA119 (screen: GDSC drug entry 1526) is > 5000 nM.

As to HSC-3 (head and neck, adherent), the AUC was 0.452 in the assay with OSU-03012; 0.685 with CUDC-101; 0.735 in the assay with QS11; 0.99 with AC220; 0.616 with JNK-9L; 0.577 in the assay with RDEA119 (screen: GDSC drug entry 1526). The IC50 is 757 nM with OSU-03012; 963 nM in the assay with CUDC-101; 2660 nM with QS11; > 1020 nM in the assay with AC220; 632 nM with JNK-9L; 492 nM with RDEA119 (screen: GDSC drug entry 1526).

As to HSC-4 (head and neck, adherent), the AUC is 0.721 with OSU-03012; 0.507 in the assay with CUDC-101; 0.976 in the assay with QS11; 0.979 with AC220; 0.665 in the assay with JNK-9L; 0.424 with RDEA119 (screen: GDSC drug entry 1526). The IC50 with OSU-03012 was 5300 nM; with CUDC-101 it was 336 nM; in the assay with QS11, > 10200 nM; with AC220 it was > 1020 nM; with JNK-9L, 1080 nM; with RDEA119 (screen: GDSC drug entry 1526), 181 nM.

As to Hs766T (pancreas, adherent), the AUC was determined as 0.772 with OSU-03012; 0.857 in the assay with CUDC-101; 0.961 with QS11; 0.984 with AC220; 0.77 with JNK-9L; 0.673 in the assay with RDEA119 (screen: GDSC drug entry 1014). Also, the AUC with RDEA119 (screen: GDSC drug entry 1526) is 0.737. Besides, the half-maximal inhibitory concentration (IC50) is 8270 nM with OSU-03012; > 5120 nM with CUDC-101; > 10200 nM in the assay with QS11; > 1020 nM in the assay with AC220; 2590 nM with JNK-9L; 1120 nM in the assay with RDEA119 (screen: GDSC drug entry 1014). Further, in the assay with RDEA119 (screen: GDSC drug entry 1526), the half-inhibitory concentration (IC50) was found to be 1890 nM.

Turning to Hs-578-T (breast, adherent), the AUC amounted to 0.876 with OSU-03012; 0.729 with CUDC-101; 0.986 with QS11; 0.987 with AC220; 0.924 with JNK-9L; 0.721 in the assay with RDEA119 (screen: GDSC drug entry 1014). Moreover, the AUC with RDEA119 (screen: GDSC drug entry 1526) worked out at 0.848. Also, the IC50 was > 16000 nM with OSU-03012; 1510 nM in the assay with CUDC-101; > 10200 nM with QS11; > 1020 nM with AC220; > 5120 nM with JNK-9L; 1380 nM in the assay with RDEA119 (screen: GDSC drug entry 1014). Besides, the IC50 with RDEA119 (screen: GDSC drug entry 1526) is 4070 nM.
